# Where “and” joins values, the source holds several entries; their conditions need not be identical. Equal entries are not always repeated. In all, about 50,000 compounds went through this assay and about 800 (1.6%) showed an effect of 50% or more. This is one part of the list.
# Molecular target: Bcl-2-like protein 10 (Homo sapiens) (UniProt Q9HD36)
# Test: TR3 peptide-Bcl-B binding displacers, biochemical primary FP assay, phenotype converters (AID 1240);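 note: 0% = Bcl-B with tracer peptide and DMSO and 100% = tracer peptide lacking Bcl-B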
# Conditions: GST-Bcl-B / FITC-TR3 peptide fluorescence polarization; stronger effect = higher value; compound at 3.75 mg/L
# Chain of UniProt Q9HD36 (Q9HD36 whole entry, looked up): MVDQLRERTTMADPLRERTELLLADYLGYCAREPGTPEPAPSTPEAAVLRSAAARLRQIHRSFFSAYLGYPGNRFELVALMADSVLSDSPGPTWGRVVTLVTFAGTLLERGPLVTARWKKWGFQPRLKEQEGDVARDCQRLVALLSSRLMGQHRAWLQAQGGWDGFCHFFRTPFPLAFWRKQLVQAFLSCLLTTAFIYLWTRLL
row,Compound,displacement
1,CCOC(=O)N/N=C(\C)c1ccc(O)cc1O,-1.5%
2,NC(=O)c1cccc(N=Cc2ccc([N+](=O)[O-])cc2)c1,-6.6%
3,COc1ccc(C2/C(=C(\O)c3ccccc3)C(=O)C(=O)N2c2cccc(Cl)c2)cc1OC (stereo unspecified),7%
4,Cc1ccc(NC(=O)COc2cccc(C)c2C)c(Br)c1,-1.9%
5,CC(=O)Nc1ccc(C(=O)CSc2ncn(-c3ccccc3)n2)cc1,14.7%
6,COc1ccc(-c2nnc(Nc3ccc(O)cc3)c3ccccc23)cc1,2.4%
7,CC(C)C(C(=O)O)N1C(=O)/C(=C/c2ccc(F)cc2)SC1=S (stereo unspecified),3.8%
8,O=C(O)c1cc(N2C(=O)C=CC2=O)ccc1Cl,-0.2%
9,CC(Oc1ccccc1)C(=O)Nc1cccc(Br)c1 (stereo unspecified),9.9%
10,O=C1N=c2ccccc2=C1c1sc(=S)[nH]c1O,2.4%
11,Cc1ccc(S(=O)(=O)Nc2cc(C)c(O)c(S(=O)(=O)c3ccc(C)cc3)c2)cc1,-2.2%
12,O=C(c1cc(-c2cccc(Br)c2)nc2ccccc12)N1CCCCCC1,31.8%
13,COc1ccc(C(=O)CSc2nc3ccccc3c(=O)[nH]2)cc1,13.6%
14,Cc1c(C2N3CC4(C)CN2CC(C)(C3)C4=O)c2ccccc2n1C (stereo unspecified),-2.1%
15,Cc1ccc(/C=N/NC(=S)NC2CCS(=O)(=O)C2)cc1 (stereo unspecified),1.5%
16,O=C1CS/C(=N/S(=O)(=O)c2ccccc2)N1,5.1%
17,O=C(NCCN1CCN(S(=O)(=O)c2ccccc2)CC1)C(=O)Nc1ccc(Br)cc1,12.4%
18,C=CCOc1ccc(/C=C2\C(=O)N(Cc3ccco3)C(C)=C2C(=O)OC)cc1OC,-11.7%
19,COc1ccc(CCNC(=O)Nc2cc(F)c(F)cc2Cl)cc1OC,21.5%
20,Cc1cccc(N2C(=O)S/C(=C\c3ccccc3)C2=O)c1,12.3%
21,COc1ccc(/C=C2/SC(=Nc3ccccc3Cl)NC2=O)c2ccccc12,7%
22,CCOc1cc(C(=O)NCc2ccccc2OC)cc(OCC)c1OCC,15.4%
23,CCN(CC)c1ccc(/C=C(\C#N)C(=O)NC)cc1,-6.7%

row,Compound,displacement
1,CCC(=O)N(CCc1ccccc1)C1CC(=O)N(c2ccc(OC)cc2)C1=O (stereo unspecified),-9%
2,O=C(Nc1ccc(Cl)c(C(F)(F)F)c1)c1cccc(Br)c1,2.7%
3,Cc1ccc(NCCC(=O)c2ccc(Br)cc2)cc1,-20.1%
4,Oc1cc(N=C/C=C/c2cccc(Br)c2)ccc1-c1nc2ccccc2o1,3.7%
5,COc1ccc(C(=O)Oc2cccc(C(=S)N3CCOCC3)c2)cc1,10.9%
6,COc1ccc(C2CC(C(F)(F)F)n3nc(C(=O)N4CCN(c5ccc(F)cc5)CC4)c(Cl)c3N2)cc1OC (stereo unspecified),13.8%
7,COc1ccc(OCC(=O)Nc2ccc3c(c2)OCCO3)cc1,11.4%
8,O=C(Nc1ccc(Br)cc1)C1CN(S(=O)(=O)c2ccccc2)CCN1S(=O)(=O)c1ccccc1 (stereo unspecified),0.1%
9,O=C(Oc1ccccc1C(=S)N1CCOCC1)c1ccc(Br)cc1,11.6%
10,Cc1cc(=O)oc2cc3c(cc12)OCCO3,19.9%
11,CCc1ccccc1NC1=C(Cl)C(=O)N(c2ccc(OC)cc2)C1=O,14.4%
12,CCOC(=O)C1=C(O)/C(=C/c2ccc(OC)cc2)SC1=Nc1ccccc1,7.6%
13,COc1cccc(NC(=O)C(=O)NCc2cccnc2)c1,8.5%
14,Cc1cccc(C2(c3cccc(C)c3)CC2C(=O)NC(C)C)c1 (stereo unspecified),5.1%
15,C=CCn1c(SCC(=O)N(CC)CC)nc(O)c(Cc2ccccc2)c1=O,-6%
16,Cc1ccc(N2CC(C(=O)Nc3cc(C)ccc3F)CC2=O)cc1 (stereo unspecified),5.2%
17,COc1cc(-c2nnc3ccc4ccccc4n23)ccc1Oc1ccc([N+](=O)[O-])cc1,-3%
18,CC(=O)Nc1ccc(-c2nc3ccc(-c4ccc5nc(-c6ccc(NC(C)=O)cc6)oc(=O)c5c4)cc3c(=O)o2)cc1,-3.3%
19,COc1ccc(/C=C/C(=O)Nc2ccc(Br)cc2C(=O)c2cc(OC)c(OC)c(OC)c2)cc1OC,1.6%
20,CCC(=O)/C=C1\Sc2ccccc2N1CC,19.4%
21,Cc1cc(Cl)ccc1N(CC(=O)NCc1cccnc1)S(=O)(=O)c1ccccc1,-9.2%
22,CC1CCN(C(=O)CCCOc2ccc(Cl)cc2Cl)CC1,-13.5%
23,COC(=O)c1ccc(N=Cc2ccc(Cl)cc2)cc1,18%

row,Compound,displacement
1,CC1=C(C(=O)OCc2ccccc2)C(c2ccccc2Cl)C2=C(CC(C)(C)CC2=O)N1 (stereo unspecified),3.1%
2,CCC1CCC(=O)C(C2(O)C(=O)Nc3ccccc32)C1 (stereo unspecified),7.1%
3,O=[N+]([O-])c1ccc(C=Nc2ccc(Cl)cc2)o1,-6.6%
4,CCOc1c(I)cc(/C=C2\C(=O)ON=C2c2ccccc2)cc1OC,3.5%
5,CCN1C(=O)N(C)C2C1N(C)C(=O)N2CC (stereo unspecified),-0.9%
6,Cc1ccccc1C(=O)Nc1c(C(=O)NCc2ccco2)cnn1-c1ccccc1,-7.2%
7,C=CCSc1nc2ccccc2n1C(=O)CN1C(=O)c2ccccc2C1=O,-16.3%
8,Cc1ccc(-c2c(C#N)c(SCC(=O)c3ccc(O)c(O)c3)nc3c2CCCC3)o1,31.2%
9,COCCOC(=O)c1ccc(NC(=O)COc2ccc(Cl)cc2C)cc1,0%
10,COc1ccc(/C=C2\C(=O)NC(=O)N(c3cc(C)cc(C)c3)C2=O)cc1C,-15.6%
11,Cc1ccc(N/C(=N\S(=O)(=O)c2ccccc2)Nc2nc(C)cc(C)n2)cc1,7.1%
12,COc1ccc(/C=C2\SC(N3CCCC3)=NC2=O)cc1,7.8%
13,CC1=NN(c2cccc(F)c2)C(=O)/C1=C\c1ccc2c(c1)OCO2,-5.1%
14,Cc1cc(=O)[nH]c(SCC(=O)Nc2ccccc2[N+](=O)[O-])n1,2.2%
15,COc1ccc(CCNS(=O)(=O)c2ccc(Cl)cc2)cc1,-0.6%
16,CC(C)c1ccc(NC(=O)c2cccc(I)c2)cc1,-14.1%
17,CC(C)(C)c1cc(C(=O)N/N=C/c2ccc(F)cc2)n[nH]1,-1%
18,CCCOC(=O)c1ccc(NC(=O)CCC)cc1,-1.2%
19,O=C(COc1ccccc1[N+](=O)[O-])Nc1ccc(-c2nc3cc(Cl)ccc3o2)cc1,22.7%
20,CCOc1cccc(N2C(=O)NC(=O)/C(=C\c3ccc(Sc4ccccc4)o3)C2=O)c1,4%
21,CCOC(=O)C1=C(C)NC(=S)NC1c1ccc(C(=O)O)cc1 (stereo unspecified),10.4%
22,Cc1cc(N2C(=O)NC(=O)/C(=C\c3cccc(O)c3)C2=O)ccc1Br,-17.5%
23,CCc1ccc(NC(=S)NC(=O)/C=C/c2ccccc2)cc1,-2.4%

row,Compound,displacement
1,CCc1ccc(NC2=C(Cl)C(=O)N(c3cccc(Cl)c3)C2=O)cc1,1.2%
2,CCC(C)c1ccc(NC(=O)Cc2ccc(Cl)cc2)cc1 (stereo unspecified),0.7%
3,CC(=O)N/N=C/c1cc(C)n(-c2ccc(Cl)cc2)c1C,-11.4%
4,C/C(=N\Nc1cc(-n2cc(C)cn2)ncn1)c1c(F)c(F)c(F)c(F)c1F,-11.6%
5,COc1ccccc1NC(=O)/C(=C\c1cccnc1)NC(=O)c1ccc(C)cc1,1.1%
6,CC1=NN(c2ccc(S(N)(=O)=O)cc2)C(=O)/C1=C\c1ccc(C)s1,4.7%
7,S=C1NCCOCCOCCOCCN1,2.3%
8,CCCCOc1ccc(-c2nc(N)n[nH]2)cc1,0.4% and -1.3%
9,OC(c1ccc(Br)cc1)C12CN3CN(CN(C3)C1)C2 (stereo unspecified),-6.5%
10,O=C(c1cccs1)N1CCN(C2CCCC2)CC1,14.5%
11,O=C(Nc1ccc2oc(-c3cccnc3)nc2c1)c1ccc(OCc2ccccc2)cc1,5%
12,CCC(O)C#CC1(C)CCCC(C)(C)O1 (stereo unspecified),-6%
13,CC1=CC(C)(C)N(S(=O)(=O)c2ccc(C)cc2)c2ccc(C)cc21,-4.8%
14,COc1ccc(/C=C/C(=O)Nc2ccc(C)c(C)c2)cc1,-12.6%
15,O=C(Oc1ccc2oc(=O)sc2c1)c1ccccc1,15.7%
16,CCN(CC)c1ccc(/C=C2\C(=O)NC(=O)N(c3ccc(Cl)cc3)C2=O)o1,-37.1%
17,CCOC(=O)C1=C(O)/C(=C/c2ccc([N+](=O)[O-])cc2)SC1=Nc1ccc(C)cc1,-3.1%
18,CCSc1nnc(NC(=O)c2sc3ccccc3c2Cl)s1,3.3%
19,COc1ccc(C2CC(=O)C3=C(C2)Nc2ccccc2NC3c2ccc(C(C)C)cc2)cc1 (stereo unspecified),-0.8%
20,Cc1c(Cl)cccc1NC(=O)CSC(N)=O,7.4%
21,CCOC(=O)c1c(-c2ccc(Br)cc2)csc1NC(=O)CSc1ccccc1,-10.1%
22,COc1cc(OC)c(C=C2C(=O)NC(=O)NC2=O)cc1Br,-10.9%
23,Cc1ccc(OCC(=O)Nc2cc(Cl)ccc2Cl)cc1,-5.7%

row,Compound,displacement
1,Cn1cccc1-c1cc(C(=O)N/N=C/c2cccc(O)c2)[nH]n1,39.6%
2,CC(=O)c1cccc(NC(=O)c2cc(Cl)ccc2Cl)c1,-3.3%
3,Cc1cccc(N=Cc2ccc([N+](=O)[O-])s2)c1,1.4%
4,CN(C)c1ccc(NC(=O)c2cc(Cl)ccc2Cl)cc1,5.1%
5,Cc1cccc(C(C)C)c1NC(=O)c1cc2ccccc2o1,6.5%
6,COCCNC(=O)CN(c1ccccc1F)S(=O)(=O)c1ccc(C)cc1,-7%
7,O=C1C(=O)N(c2ccccc2)C(c2ccc3c(c2)OCO3)/C1=C(\O)c1ccc(Br)cc1 (stereo unspecified),-1%
8,COc1ccc(/C=C2\CCc3ccccc3C2=O)cc1OC,4.7%
9,Cc1cc(OCC(=O)NCc2ccc(F)cc2)ccc1Br,-6.4%
10,COC(=O)c1cc(NC(=O)c2cc3ccccc3oc2=O)cc(C(=O)OC)c1,3.6%
11,COCCCNC(=O)c1ccc(I)cc1,12.1%
12,O=C1NC(=O)C(=Cc2ccccc2OCc2ccc(Cl)cc2Cl)C(=O)N1,2.1%
13,COc1ccc2c(c1)nc(SCC(=O)c1ccccc1)n2C,1.8%
14,O=C1CC(c2ccc3c(c2)OCO3)CC2=C1C(c1cc3c(cc1Br)OCO3)Nc1ccccc1N2 (stereo unspecified),9.4%
15,O=C(Nc1ccc(N2CCCCC2)cc1)c1ccc(-c2ccccc2)cc1,-0.9%
16,C=CCC(NCc1ccccc1)c1ccncc1 (stereo unspecified),-7.3%
17,COc1ccc(/C=C(/C#N)C(=O)Nc2cccc(Br)c2)c(OC)c1,-8.7%
18,CC1=C(C(=O)OC(C)C)C(c2ccc3c(c2)OCO3)C(C(=O)OC(C)C)=C(C)N1,0.4%
19,COc1ccc([N+](=O)[O-])cc1NC(=O)CC(C)C,1.2%
